Screen size: about 310,000 compounds; about 14,000 (4.5%) showed an effect of 50% or more. Effects have a minus sign here. The list shows a part of the results.
biological target: human ether-à-go-go-related gene (hERG) potassium channel (human, UniProt Q12809); test: primary screen, population patch clamp on CHO cells stably expressing hERG
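Also: peak tail current of the secondary pulse compared with the same well before compound.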

human ether-à-go-go-related gene (hERG) potassium channel, sequence (Q12809 whole entry, looked up): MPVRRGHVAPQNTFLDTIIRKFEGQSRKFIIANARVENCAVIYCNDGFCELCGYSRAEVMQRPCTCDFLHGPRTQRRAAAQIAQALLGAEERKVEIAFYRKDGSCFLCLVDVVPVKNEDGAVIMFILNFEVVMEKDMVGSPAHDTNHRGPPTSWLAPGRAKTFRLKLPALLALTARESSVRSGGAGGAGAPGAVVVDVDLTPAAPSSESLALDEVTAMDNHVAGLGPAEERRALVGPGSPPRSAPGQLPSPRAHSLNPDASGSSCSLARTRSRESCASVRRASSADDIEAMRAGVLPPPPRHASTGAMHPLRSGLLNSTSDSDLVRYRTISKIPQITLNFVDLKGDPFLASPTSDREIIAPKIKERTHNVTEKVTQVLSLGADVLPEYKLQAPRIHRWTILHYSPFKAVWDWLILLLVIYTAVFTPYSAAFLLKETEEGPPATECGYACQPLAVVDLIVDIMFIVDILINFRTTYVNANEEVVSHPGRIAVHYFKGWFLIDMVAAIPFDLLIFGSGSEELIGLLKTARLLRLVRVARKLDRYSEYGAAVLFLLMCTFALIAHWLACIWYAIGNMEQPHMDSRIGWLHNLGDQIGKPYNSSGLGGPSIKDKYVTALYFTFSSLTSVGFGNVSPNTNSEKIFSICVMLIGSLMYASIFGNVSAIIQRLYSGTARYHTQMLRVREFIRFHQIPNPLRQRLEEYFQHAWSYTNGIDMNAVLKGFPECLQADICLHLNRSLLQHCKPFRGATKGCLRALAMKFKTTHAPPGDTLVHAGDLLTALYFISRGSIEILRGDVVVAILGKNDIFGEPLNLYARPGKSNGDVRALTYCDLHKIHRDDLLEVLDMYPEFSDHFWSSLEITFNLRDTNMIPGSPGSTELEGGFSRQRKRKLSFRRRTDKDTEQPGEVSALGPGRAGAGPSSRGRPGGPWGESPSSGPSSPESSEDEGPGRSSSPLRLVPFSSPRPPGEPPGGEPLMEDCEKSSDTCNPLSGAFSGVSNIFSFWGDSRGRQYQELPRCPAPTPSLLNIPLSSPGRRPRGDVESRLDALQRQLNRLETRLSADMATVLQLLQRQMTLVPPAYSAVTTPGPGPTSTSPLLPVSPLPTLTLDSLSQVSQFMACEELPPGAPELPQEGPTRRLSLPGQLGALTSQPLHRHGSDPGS

Row | Structure (SMILES) | hERG current change (%, negative = inhibition) at 10uM
1 | CC(=N\NC(=O)c1ccccc1)/C(=N/O)C(=O)Nc1ccccc1 | 7.51%
2 | COc1ccc(N2C(=O)CCC2(C#N)c2ccc(Br)cc2)cc1 (stereo not shown) | -19.6%
3 | CSc1ccc(C2NC(=O)CCC2[N+](=O)[O-])cc1 (stereo not shown) | -6.37%
4 | Cc1ccccc1OCCCC(=O)NCc1ccco1 | 1.25%
5 | S=C(Nc1cccc(Cl)c1)Nc1cccc2cnccc12 | -11.2%
6 | Cc1ccc2c(c1)CN1CN2Cc2cc(C)ccc21 | -2.19%
7 | C[C@@H]([C@@H](O)c1ccccc1)N(C)C(=O)Cc1ccccc1 | 4.06%
8 | COc1cc(OC)cc(C(=O)NCC(=O)Nc2ccc(C)c(Cl)c2)c1 | 16.6%
9 | CC(=O)Nc1cc(N=Cc2ccc(O)cc2O)c(Cl)cc1Cl | 13.4%
10 | N#C/C(=C\c1cccnc1)C(=O)Nc1ccccc1[N+](=O)[O-] | -2.35%
11 | O=C(/C=C/c1ccccc1O)c1ccc(Cl)cc1 | 25.3%
12 | COCCn1cc(C(=O)c2ccccc2OCC(=O)Nc2cc(C)on2)cc(C#N)c1=O | 10.3%
13 | Cc1ccc(C(=O)N/C(=C\c2ccc(F)cc2)C(=O)NCc2ccncc2)cc1 | -75.9%
14 | C=CCn1c(SCC(=O)NCC(c2ccccc2)N(C)C)nnc1C1CCCCC1 (stereo not shown) | 8.62%
15 | COc1ccc(-c2csc(N3CCOCC3)n2)cc1OC | -5.19%
16 | O=C(Nc1cccc(C(=O)O)c1)/C(=C\c1ccccc1Cl)NC(=O)c1ccco1 | 6.89%
17 | CSCCNC(=O)c1ccc(C(C)(C)C)cc1 | -2%
18 | O=C(Nc1ccc2c(c1)CCC2)c1ccc(Br)o1 | -17.2%
19 | CCc1ccccc1NC(=O)CCCN1C(=O)C2CC=CCC2C1=O (stereo not shown) | 12%
20 | Cc1ccc(F)cc1NC(=O)N1CCN(c2ccnc3cc(Cl)ccc23)CC1 | -67%

Row | Structure (SMILES) | hERG current change (%, negative = inhibition) at 10uM
21 | O=C(COC(=O)/C=C/c1ccccc1)NC1CC1 | -5.83%
22 | Cc1cccc(-c2noc(-c3ccc(F)cc3)n2)c1 | 15.1%
23 | COc1ccc(N2CCN(Cc3cc(=O)oc4cc(C)c(Cl)cc34)CC2)cc1 | 8.44%
24 | O=C(c1ccc2c(c1)N(Cc1ccc(F)cc1)CCS2)N1CCC2(CC1)OCCO2 | -57.1%
25 | CC(=O)N/N=C\c1cccc(OC/C=C/c2ccccc2)c1 | 5.97%
26 | COc1ccc(-c2cnc[nH]2)cc1 | 21.3%
27 | COc1ccc(N(Cc2cc3ccccc3[nH]c2=O)S(C)(=O)=O)cc1 | 1.34%
28 | Cc1c(C)c2c(OCC(=O)N[C@@H](C(=O)O)c3ccccc3)cc3c(c2oc1=O)CCC(C)(C)O3 | 11.9%
29 | O=C(CSc1nc(C2CC2)nc2ccccc12)Nc1cccc(O)c1 | 6.6%
30 | COc1ccccc1OC1=NS(=O)(=O)c2ccccc21 | -1.69%
31 | COC(=O)C1=C(O)/C(=C\c2ccc(CNC(=O)C(=O)Nc3ccc(C)c(C)c3)o2)N=C1C | -17.8%
32 | COc1ccc(S(=O)(=O)NC2CC(=O)N(c3ccc4c(c3)OCCO4)C2)cc1 (stereo not shown) | 1.11%
33 | Cc1ccccc1NC(=O)CCNS(=O)(=O)c1cccc2nsnc12 | 5.97%
34 | Cn1nc(-c2ccccc2)c(/C=N/O)c1Cl | 12%
35 | Cc1ccc(-c2cc(C(F)(F)F)c(C#N)c(=O)[nH]2)cc1 | -3.06%
36 | CN(CC(=O)Nc1cccc(F)c1)C(=O)CCCc1cccs1 | -7.24%
37 | CCOC(=O)C1=C(O)/C(=C/c2cccc(OC)c2O)N=C1C | 8.18%
38 | Cc1ccc(N/N=C(\C#N)C(=N)N2CCCCC2)cc1 | -47.7%
39 | NC(N)=NC(N)=Nc1ccccc1 | 15.4%
40 | O=C(Nc1cnccn1)C1c2ccccc2Oc2ccccc21 | -5.02%

Row | Structure (SMILES) | hERG current change (%, negative = inhibition) at 10uM
41 | O=C(NCc1ccco1)C(=O)c1cn(CC(=O)N2CCCC2)c2ccccc12 | -21.4%
42 | O=C1CCCc2c1nc(-c1ccc(F)cc1)n2O | 12%
43 | COc1ccc(C)cc1NC(=O)CSc1ccc(-c2ccccn2)nn1 | 8.2%
44 | Cc1ccc(N2C(=O)SC(N(CC(=O)O)c3cccc(C)c3)C2=O)cc1 (stereo not shown) | -0.0799%
45 | O=C(O)c1cccc(S(=O)(=O)N(Cc2ccccc2)c2ccc(Cl)cc2)c1 | 14%
46 | CCCNCc1cc(Cl)c(OCC)c(Cl)c1.Cl | 13.8%
47 | O=C(NCCCN1CCN(Cc2ccccc2Cl)CC1)Nc1ccccc1 | -56.8%
48 | COc1ccc(-c2cn(Cc3cccc(OC)c3)nn2)cc1 | -0.524%
49 | Cc1cccc(C(=O)NNC(=O)C(=O)NC(C)(C)C)c1 | 2.04%
50 | CCCNc1nc(Nc2ccc(C)c(Cl)c2)c2cnn(C)c2n1 | 17.8%
51 | O=C(CSc1nc2ccccc2s1)NNC(=O)Nc1ccc(Cl)c(Cl)c1 | 7.58%
52 | COc1cc(CCCN2CCNC[C@@H]2Cc2ccccc2)cc(OC)c1OC | 4.5%
53 | Cc1c([N+](=O)[O-])cc(C(=O)Oc2ccc(Br)cc2C(=S)N2CCCCC2)cc1[N+](=O)[O-] | 34.7%
54 | Cc1cccc(NC(=O)CCNS(=O)(=O)c2cccc3nsnc23)c1 | 5.49%
55 | NC1=NC[C@H](CC2CCCCC2)N1CCc1cc(C(F)(F)F)cc(C(F)(F)F)c1 | -15.1%
56 | COc1ccc(NC(=O)C2C3C=CC4(O3)C2C(=O)N(CCCN2CCCC(C)C2)C4C(=O)NC2CCCCC2)cc1 (stereo not shown) | 18.6%
57 | Cc1nc(Nc2ccc3c(c2)OCCO3)c2nnn(Cc3ccccc3Cl)c2n1 | -6.92%
58 | COc1ccc(C(=O)NCC(=O)N2CCN(c3ccc(Cl)cc3)CC2)cc1 | 6.79%

Source: article PMC4336329 (PLoS ONE, 2015)
